From the supplement of paper PMC3334620
Whole data set: some 33,000 sequences, median “E-score (-0.5 to 0.5)” near -0.032, cut for the highest 2% near 0.36. Some of the results follow.

molecular target: T1, Sko1 (UniProt Q02100); assay: PBM E-score (8-mer binding enrichment) (E-score (-0.5 to 0.5)); higher = stronger / more preferred TF binding; most listed sequences are background and not binding sites; settings: protein concentration: 200 nM; construct: GST-full length
T1 sequence: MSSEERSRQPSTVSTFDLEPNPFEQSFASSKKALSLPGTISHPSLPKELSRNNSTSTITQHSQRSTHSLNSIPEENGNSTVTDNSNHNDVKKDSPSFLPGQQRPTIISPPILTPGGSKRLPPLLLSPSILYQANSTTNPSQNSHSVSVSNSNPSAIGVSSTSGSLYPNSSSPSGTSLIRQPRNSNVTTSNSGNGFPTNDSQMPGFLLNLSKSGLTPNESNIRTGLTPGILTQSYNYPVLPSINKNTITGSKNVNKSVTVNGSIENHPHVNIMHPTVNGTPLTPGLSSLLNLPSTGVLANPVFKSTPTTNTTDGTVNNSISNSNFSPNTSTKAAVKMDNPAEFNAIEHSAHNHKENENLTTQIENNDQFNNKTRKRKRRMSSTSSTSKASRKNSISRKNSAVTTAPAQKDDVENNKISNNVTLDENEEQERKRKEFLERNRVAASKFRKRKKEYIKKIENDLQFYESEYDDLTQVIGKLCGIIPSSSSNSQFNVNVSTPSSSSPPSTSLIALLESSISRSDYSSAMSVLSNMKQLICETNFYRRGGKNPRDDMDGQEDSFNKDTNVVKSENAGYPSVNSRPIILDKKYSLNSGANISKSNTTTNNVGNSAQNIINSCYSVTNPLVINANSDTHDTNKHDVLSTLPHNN
Method in brief: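 Universal all-10-mer Agilent arrays, fresh or stripped once, were converted to double-stranded form by primer extension. GST-tagged yeast transcription factors from PURExpress in vitro transcription/translation, full-length or DNA-binding domain only, were applied at about 100-200 nM and detected with fluorescent anti-GST. After masliner normalisation, the Universal PBM Analysis Suite scored each ungapped eight-base word together with its reverse complement by E-score.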

Sequence	PBM E-score
GCGCTCCC	-0.358
CGCCGGGA	-0.442
CATGTATA	0.209
TCCTGGCA	-0.0713
ATGTTTGA	0.0632
ATAACGTA	0.461
ATGCTGTG	0.0724
CAGATCGC	-0.0406
ATATCCCC	-0.246
GGGTCACC	-0.346
AGCGGGAG	-0.271
AGGGCTAC	-0.264
AGCAGCTC	-0.237
ATGGGTCC	-0.274
CTTGGTCA	0.0157
GCACGCTA	-0.138
GCGGAAGA	-0.109
CGCTCATC	-0.0319
ATTAGGTG	0.143
ACAGCTAA	-0.0635
ACCTGGTA	-0.167
GAACAAGC	0.00353

Sequence	PBM E-score
ATCATTAG	0.26
ATCATACA	0.257
GAAAAGCC	-0.236
TATGGGCA	-0.128
CGCGTGTC	0.159
TGTTTAAA	0.145
GCGGCCCC	-0.364
ATCTGGAC	-0.159
AGGTCAGG	-0.395
ATTTTAGC	-0.0022
GGATTTCA	-0.0921
GGTATTCA	0.133
AGCACTCC	-0.0955
CACCTGTC	-0.232
ACAGGGCA	-0.0363
GTCTTATA	0.19
CAGATAAG	-0.0185
GCGCTGCA	-0.0598
GTCCCGCA	-0.182
CTGGAACA	0.152
CCCGCTGC	-0.162
CGCGCTGC	-0.147

Sequence	PBM E-score
AGTCACTC	-0.0377
AGTTGATA	0.151
GACTCACA	0.0934
CTGAACAG	-0.129
CTCGATCA	-0.0926
ACGCGAAA	0.232
ATCTAGTC	-0.136
AGCTAAAC	-0.00852
CGTCCTCC	-0.08
CGTTATGA	0.267
AAAACTGT	0.135
AAACTTAC	0.169
AGAGTCGA	-0.192
CTGACGAA	0.373
GCACTGCA	0.0142
GACGCTAA	0.032
ATGGGATC	-0.00149
CCCCACCA	-0.12
ACGGTCCC	-0.364
AGCAAACC	0.053
CGGTCACG	-0.0207
GCCGGCTA	-0.0506

Sequence	PBM E-score
AATTAAAT	0.174
CAGCCGAG	-0.317
CCATTTCC	-0.0706
GCGTTTTA	0.125
CACGATAC	0.0723
AATAATAA	0.238
TCACGCCA	0.195
GTCCAAGA	-0.284
AGACTCCA	-0.159
AAGTACCA	0.0286
TAGTTGAA	0.078
TATAGGCA	-0.0485
AAGCTGGT	-0.0738
TGAAGCCA	-0.0432
ATAACAGC	0.139
CCACGTTC	0.0509
CTCTCAAA	0.157
GGTAAGGA	-0.0271
ATTGCTTG	-0.00897
CGTCCACC	-0.115
AAAACAAT	0.138
CATTGGGC	-0.143

Sequence	PBM E-score
GACTTCAC	-0.166
ATCCTTCA	0.068
GCACTCAC	-0.095
GCGAGCGC	-0.14
GGCTTAAA	0.0193
AAAATCGT	0.243
CAGAGCGC	-0.0734
AGATCCAT	-0.135
GTGCCAAC	-0.0665
TAAACTTA	0.131
ATGGGAGA	-0.262
CTGTTTCA	0.196
GGAGAACC	-0.227
AGGCGCGG	-0.242
AGGGTCCC	-0.26
ATCCCTGA	-0.162
GCGAAGCC	-0.208
CCGAAAAG	-0.066
CTGTCTCA	-0.185
CAATATCC	-0.0293
CCGGCTCC	-0.475
